In PMC10668032:
The other results are listed elsewhere or left out. At the low end of the ranking, values are background and their order means little.

target: SIX1 homeodomain (reference allele) (UniProt Q15475); experiment: universal protein binding microarray; settings: Universal all-10-mer PBM (8x60K, AMADID 030236), 300 nM GST-tagged protein, Alexa Fluor 488 anti-GST; buffer, salt, pH and temperature not stated; high values mean tight binding; most listed sequences are background and not binding sites; double strand, one strand shown

Sequence	binding signal [E-score]
GCCTCACA	-0.129
CTCCAGTA	0.0784
GGTAGCAA	-0.166
CACGTGAA	-0.0276
GAATGAGA	0.081
ACATACCG	0.162
AGTTGCCG	-0.252
ACCCAGGC	0.0595
GTTTTGGA	-0.042
AACGACAT	-0.187
CCATGCTA	0.0644
ACCCAAAA	0.00116
CCGCGCGG	-0.0933
ACGATTAG	-0.0185
ACGAACAA	-0.138
CGCAAGTC	-0.149
GAAACTTA	-0.188
ACAGCACA	-0.0757
ATACGGTA	0.405
AGGCGCGC	-0.145
CCTGTGAC	-0.00424
CCGCGAAG	-0.0634

Sequence	binding signal [E-score]
CAACGAAC	-0.203
TACCATGA	0.0689
CACATAGG	-0.0739
CATTGTAA	0.0513
CTAGGAGA	0.00177
TGGAAGAA	-0.104
ACATTTCG	-0.301
GCTAAGCC	-0.18
ATTACGAA	-0.0905
ACAGGTCA	-0.248
ATGGATCA	0.383
CCCAAGTC	-0.167
CAGGTATA	0.276
GCAGGGCC	-0.16
AAACGCGC	-0.225
TGCGAGAA	0.0209
CCCACTAC	0.0503
AACACATA	0.0344
CTGCTGTC	-0.105
AACGAGGA	0.107
GTGGCCAC	-0.164
GCCCGGAA	-0.136

Sequence	binding signal [E-score]
GCAAATAC	-0.151
CTTAAAGC	-0.0817
ATGTTTAA	-0.213
GAAGTTGC	-0.204
ATAGTGCG	0.0774
GGACAACA	-0.0797
AGTCTTTG	-0.214
GGGACGTA	0.0511
GAACTTGA	0.0312
CAACCTTC	-0.258
CAAAGAAA	-0.327
AGATTTGC	-0.193
GCGTGTCA	0.117
ACTTTTGA	-0.147
ACGCGTAA	0.0077
AAACTGTA	-0.0741
CACGTTCC	-0.0842
GCCGCAAA	-0.0861
TGCAAGAA	-0.131
TCACTGGA	0.0123
AGGGCTGA	-0.0752
ACAAACTA	-0.0665

Sequence	binding signal [E-score]
GACAAGAC	-0.135
CCCGAGCA	-0.036
AGCCCGAT	0.263
ACTAATAC	0.225
AAGGAGTC	-0.191
GACCGGTC	-0.11
AAGGCCCA	-0.34
GAACTTAC	-0.165
GACTAGTC	-0.154
TCAATTGA	-0.0339
CATACACG	0.157
AACTAGCG	-0.145
CAGCAACC	-0.235
AGTAATGA	0.0889
ACATAATA	0.248
GTTATTGA	0.0127
GCCACCCA	-0.225
CCAAAGGA	-0.154
CCTGTATA	0.219
GCGGTGAA	-0.05
AGAGCACC	-0.0661
AAGTACGG	-0.221

Sequence	binding signal [E-score]
GCGTGAGA	0.132
GCAGGAAA	-0.153
CAACACTA	-0.0617
ACTAGAAT	-0.0461
CTCGCTCA	0.0131
CGGCCCGC	0.0147
AAGAGGTA	0.187
AAATTAAA	-0.229
ACCATCCG	0.23
ATGTGACC	-0.146
GCTTCCCA	-0.0472
AGGATCCA	0.346
ATCAGGAC	0.149
CTGAATCC	-0.0016
ATGAGATC	0.34
ACATATAC	0.244
GAGCTGTA	-0.147
ATTTACTG	-0.209
CCCGCTTA	-0.092
CAATTCGA	-0.134
ACAGGCGA	-0.0237
CCCCCACG	-0.0276
